Measurements reported in the supplement of paper PMC3334620.
The full ranking holds about 33,000 sequences; the median of “E-score (-0.5 to 0.5)” is about -0.016, and the highest 2% start at about 0.31. The list shows a part of the results.

These sequences were tested against Cst6 (UniProt P40535) (assay: PBM E-score (8-mer binding enrichment) (E-score (-0.5 to 0.5)); higher = stronger / more preferred TF binding; most listed sequences are background and not binding sites). Conditions: protein concentration: 200 nM; construct: GST-DNA-binding domain.
Method in brief: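 PURExpress in vitro transcription/translation supplied GST-tagged yeast transcription factors, either full-length or DNA-binding domain. Applied at about 100-200 nM to universal all-10-mer Agilent arrays double-stranded by primer extension, the bound protein was detected with fluorescent anti-GST. E-scores, modified Wilcoxon-Mann-Whitney statistics, were given by the Universal PBM Analysis Suite to ungapped eight-base words pooled with their reverse complements after masliner normalisation.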

Sequence | PBM E-score
CGCGCAAC | -0.112
CATGCTCG | -0.0524
CAAAGGGC | -0.0204
ATGGGACG | -0.118
AAATGGCA | 0.138
GTAGTATA | 0.0544
AAGGCTTA | -0.0227
AGGCGCCG | 0.325
AGTGTTAC | 0.128
ACCGCATG | 0.13
ACGCTTGA | 0.132
CCGCAGCA | 0.0617
ATTACCTG | 0.14
CTTTTAAA | 0.197
AAGGCCGT | 0.0353
ATCGGAGC | -0.214
ATAAGGGA | 0.0975
AACGTAAT | 0.453
AGGCTCGC | -0.224
CGAAGGAA | -0.0308
ATTCTAAA | 0.188
CCAGCCGC | -0.209
CCATTGAC | 0.0303
AGATTAAA | 0.211
TCCGTTCA | -0.0662

Sequence | PBM E-score
AGAGTACG | -0.0348
GAGGGACA | -0.22
ATGTTAAT | 0.114
GCCGTTGA | 0.126
GCTTATGA | 0.058
GTTGTACA | 0.171
GGCCATGA | 0.00515
AGACATCA | 0.0931
CAGGGTTA | -0.124
ACTGTCAC | 0.141
AGGTGTTA | 0.00729
CGACGTCC | -0.0701
ACAATAAA | 0.108
CCCGTTAA | -0.196
GCTCGAGA | -0.13
ACGACGCT | -0.205
ATAGCTAC | -0.00283
AACATTGG | -0.183
AAACAACA | 0.128
CGATTATC | -0.132
ACGCCACC | -0.128
ATAATTTG | 0.195
TCTGAAGA | -0.249
TCTCTGCA | -0.181
CCACATCG | -0.12

Sequence | PBM E-score
CGGGGATA | -0.14
AAGTTGTA | 0.19
AAGGGTCG | -0.0627
GTAGTGAC | 0.332
CGCATCCA | 0.0844
AGGCATTA | 0.133
CATCGACG | 0.0703
GGCTGTAA | 0.0549
CGGGGTCC | -0.272
GCTCGATA | -0.00747
AGATCTCA | -0.00275
GAGAACGA | 0.0186
CTATGGCA | -0.00602
TCATGCCA | 0.248
CAGCCCTC | -0.307
AGGCGGTG | -0.18
ACTAGCCG | -0.143
CCTCTGCA | -0.201
ACACGGCC | 0.0244
CCAACCAA | -0.117
CGCTGAGC | 0.0101
CCTACGAC | -0.166
TCGTAAAA | 0.232
AGTTGGGC | -0.0683
GGTTTTTA | 0.129

Sequence | PBM E-score
GACCGAAA | 0.0536
CCGCGGGA | -0.0755
ACCGTAAG | 0.109
AAGTCTCG | -0.173
CAAAAGTA | 0.229
ACTAACTA | -0.157
CCGGAGGA | -0.373
ATGGGCTA | 0.0676
TCTTTTAA | 0.176
CTCTCCAA | -0.0525
ATGGCACA | -0.0353
CCGTTGAG | -0.0651
ATTGCGGA | -0.0337
CCGCAAGG | -0.093
CTAACGCA | -0.0268
GAGTCCAC | -0.274
ACTCGAAT | -0.097
CGTAGCGA | -0.0921
AGATTATA | 0.14
AAACACGA | 0.0756
ATTCTCCG | -0.0303
CACACGAG | -0.205
ATTTTGTA | 0.234
TCAGCGAA | 0.0234
CAGCTTCA | -0.0557

Sequence | PBM E-score
GGTGGGTA | -0.123
CGCGACCA | -0.0267
CACGATTA | 0.0595
ATCCTTCG | -0.0186
GATGGCAC | -0.145
AGTCTGAC | -0.0842
AAAACTGA | 0.0779
GTGAGGTA | 0.119
CAGCCACC | -0.0579
AGTAATAT | 0.301
CTCAGACC | -0.22
CACAAAAG | 0.0872
CAGGGCTC | -0.262
CGAGAAAA | 0.0583
CTAATCGC | 0.0364
AAGAAGCA | 0.0924
GCGCTACC | -0.177
TTATCAAA | 0.223
TATGAACA | 0.16
GCGAGGCA | 0.237
AAGACGCT | -0.218
ATTTAATA | 0.338
AAATGGAA | 0.0873
GGAAATAC | 0.0425
AGCGTTAC | -0.0278

Sequence | PBM E-score
ATGGAGAA | 0.0595
AGTCCGAC | -0.244
AGAACGGA | 0.00921
CTGCAATC | -0.0213
TAAGATGA | 0.229
ATCCGTAG | -0.255
GACAATAC | 0.157
CCTCGACA | -0.106
CTGTCAGA | -0.107
CTACAGTA | 0.0158
AAAACTCG | 0.107
TCACTGAA | 0.126
CATCTCTC | 0.0128
AGTCGTTC | -0.0621
AGATGGAT | -0.328
ACTCAAAA | 0.192
CACCTCGA | 0.119
CCCAGGTC | -0.242
ATTCTTAC | 0.315
CCTGCGCC | -0.112
ATTAGAGG | -0.0814
ATATAGAC | 0.0893
CACCGTAA | 0.107
CCCCAGAC | -0.237
ACGCAACG | 0.235

Sequence | PBM E-score
CTAAGATC | 0.0376
CCCAATAG | -0.116
AGCGTTTC | -0.151
GCGTCCGA | -0.131
GGTAGGTA | -0.226
ATCCTGTG | -0.189
GATAGACA | -0.0434
CCAGTCGG | -0.127
ATGGGCGG | -0.145
AATAATTA | 0.325
AAGTATGG | 0.0183
ATTAGTAC | 0.182
CATTAGCA | 0.13
TGACCTAA | 0.362
AGGTGACT | 0.153
CTTTCCGC | 0.0117
CCACATTC | -0.139
GCAGATCC | -0.0905
AGGGGGCC | -0.332
ACGTAGCA | 0.122
AAGGTTAA | -0.0367
CGACGACC | -0.143
